Measured values published in patent US6716811B1, “Compounds having affinity for the granulocyte-colony stimulating factor receptor (G-CSFR) and associated uses” (Affymax, Inc., priority 2000, dated 2004).
At least one peptide structure holds a part that was inferred or is arguable (an end, a ring closure or a residue). For at least one compound, name, drawing or mass did not settle the structure. Where a SMILES comes first, the peptide text is derived from it. Bridges are numbered along the chain shown (N, C = ends). Roman numbers before positions name the chains, in order. Where no end group is shown, it is not given here. The star is where a group is joined. Biotin = O=C1N[C@H]2[C@H](CS[C@H]2CCCCC(=O)*)N1

What follows are compounds tested against T1, G-CSFR (Homo sapiens, UniProt Q99062) (assay: G-CSF radioligand binding assay (SPA beads, 125I labeled G-CSF)). Conditions: reduction by 50% of 125I labeled G-CSF bound to immobilized G-CSFR; overnight at 4° C.
T1 construct: incubation with soluble G-CSFR harvest; made in house
T1 sequence (Q99062 25-627): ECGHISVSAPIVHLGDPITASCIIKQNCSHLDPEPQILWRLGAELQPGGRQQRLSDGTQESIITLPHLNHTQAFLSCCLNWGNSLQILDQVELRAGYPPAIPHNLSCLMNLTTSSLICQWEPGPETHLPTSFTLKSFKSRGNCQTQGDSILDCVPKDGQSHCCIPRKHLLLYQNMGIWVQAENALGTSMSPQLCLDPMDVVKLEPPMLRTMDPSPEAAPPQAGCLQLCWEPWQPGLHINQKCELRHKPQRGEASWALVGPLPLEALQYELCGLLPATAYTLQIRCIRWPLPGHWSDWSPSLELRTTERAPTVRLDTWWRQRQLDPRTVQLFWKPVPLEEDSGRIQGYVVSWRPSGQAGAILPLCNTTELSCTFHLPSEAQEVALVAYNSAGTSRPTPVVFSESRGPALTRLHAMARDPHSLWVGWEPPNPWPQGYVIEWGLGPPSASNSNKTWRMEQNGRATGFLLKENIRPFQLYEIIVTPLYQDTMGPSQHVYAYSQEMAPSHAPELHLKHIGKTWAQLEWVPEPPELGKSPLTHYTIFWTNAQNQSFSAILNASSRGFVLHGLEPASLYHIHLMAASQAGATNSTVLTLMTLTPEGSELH
Method: Streptavidin-coated scintillation proximity assay (SPA) beads (Amersham) were mixed with biotinylated anti-receptor immobilizing antibody (Ab179) followed by incubation with soluble G-CSFR harvest. Receptor-coated SPA beads were washed twice in PBS/0.1% BSA and distributed to wells of a white polystyrene 96-well microtiter plate (Packard). Serial dilutions of peptide or peptide mimetic were mixed with a constant amount of ^125I labeled G-CSF (10^5 cpm; 1290 Ci/mmol) in PBS/0.1% BSA, added to wells containing receptor-coated SPA beads, and incubated overnight at 4° C. The binding of radiolabeled G-CSF to the receptor-coated SPA bead brings the isotope in close proximity to the scintillant, which allows the emitted radiation to stimulate the scintillant to emit light. […] The amount of ^125I labeled G-CSF that was bound at equilibrium was measured by counting the plate in a TopCount (Wallac) microtiter plate luminometer. […] One can determine the concentration at which the peptide or peptide mimetic will reduce by 50% (IC50) the amount of ^125I labeled G-CSF bound to immobilized G-CSFR.

Point of comparison: `CSCC[C@H](NC(=O)[C@H](CCCNC(=N)N)NC(=O)[C@H](CO)NC(=O)[C@H](CS)NC(=O)[C@H](CCC(=O)O)NC(=O)[C@@H](NC(=O)[C@H](CC(C)C)NC(=O)[C@H](CCCNC(=N)N)NC(=O)[C@H](CO)NC(=O)[C@H](CCC(=O)O)NC(=O)[C@@H](N)CS)C(C)C)C(=O)O` [Example 47, CESRLVECSRM] (H-CESRLVECSRM-OH; N-terminus and C-terminus assumed), IC50 200 µM. Against it:
- CC[C@H](C)[C@H](NC(=O)[C@H](CC(=O)O)NC(=O)[C@H](CC(C)C)NC(=O)[C@@H](N)CC(C)C)C(=O)N[C@@H](CS)C(=O)N[C@@H](CCC(=O)O)C(=O)N[C@@H](CC(C)C)C(=O)N[C@@H](CCCCN)C(=O)N[C@@H](CC(C)C)C(=O)N[C@@H](CCC(N)=O)C(=O)N[C@@H](CCC(=O)O)C(=O)N[C@@H](C)C(=O)N[C@@H](C)C(=O)N[C@@H](CCCNC(=N)N)C(=O)N[C@@H](CCCNC(=N)N)C(=O)N[C@@H](CS)C(=O)N[C@@H](CC(N)=O)C(=O)O [Example 58, LLDICELKLQEAARRCN] (H-LLDICELKLQEAARRCN-OH; N-terminus and C-terminus assumed) — not separable, 0.5 to 200 µM
- CC[C@H](C)[C@H](NC(=O)[C@H](CC(=O)O)NC(=O)[C@H](CC(C)C)NC(=O)[C@H](CC(C)C)NC(=O)CNC(=O)CNC(=O)CNC(=O)[C@@H](NC(=O)[C@H](CCCNC(=N)N)NC(=O)CN)[C@@H](C)O)C(=O)N[C@@H](CS)C(=O)N[C@@H](CCC(=O)O)C(=O)N[C@@H](CC(C)C)C(=O)N[C@@H](CCCCN)C(=O)N[C@@H](CC(C)C)C(=O)N[C@@H](CCC(N)=O)C(=O)N[C@@H](CCC(=O)O)C(=O)N[C@@H](CS)C(=O)N[C@@H](C)C(=O)N[C@@H](CCCNC(=N)N)C(=O)N[C@@H](CCCNC(=N)N)C(=O)N[C@@H](CS)C(=O)N[C@@H](CC(N)=O)C(=O)O [Example 55] (H-GRTGGGLLDICELKLQECARRCN-OH; N-terminus and C-terminus assumed) — lower, < 0.5 µM
- CC(C)C[C@H](NC(=O)[C@H](CCCCN)NC(=O)[C@H](CO)NC(=O)[C@H](CCC(=O)O)NC(=O)[C@H](CC(C)C)NC(=O)[C@H](Cc1ccc(O)cc1)NC(=O)[C@H](Cc1c[nH]c2ccccc12)NC(=O)[C@H](CC(C)C)NC(=O)[C@@H](N)CC(=O)O)C(=O)N[C@@H](CCC(=O)O)C(=O)N[C@@H](CCC(=O)O)C(=O)N[C@@H](CS)C(=O)N[C@@H](C)C(=O)N[C@@H](CCCNC(=N)N)C(=O)N[C@@H](CCCNC(=N)N)C(=O)N[C@@H](CS)C(=O)N[C@@H](CC(N)=O)C(=O)NCC(N)=O [Example 51, DLWYLESKLEECARRCNG] (H-DLWYLESKLEECARRCNG-NH2; N-terminus and C-terminus assumed) — not separable, 0.5 to 200 µM
- I: LTAERDAEKRRWLLTHGGEGGGGGK / II: LTAERDAEKRRWLLTHGGEGGGGG (amide I:25-II:C) [Example 69] — higher, > 200 µM
- CC[C@H](C)[C@H](NC(=O)CNC(=O)[C@@H](N)CC(C)C)C(=O)N[C@@H](CCC(=O)O)C(=O)NCC(=O)N[C@@H](CCCNC(=N)N)C(=O)N[C@H](C(=O)NCC(=O)NCC(=O)NCC(=O)N[C@@H](CC(C)C)C(=O)N[C@@H](CC(C)C)C(=O)N[C@@H](CC(=O)O)C(=O)N[C@H](C(=O)N[C@@H](CS)C(=O)N[C@@H](CCC(=O)O)C(=O)N[C@@H](CC(C)C)C(=O)N[C@@H](CCCCN)C(=O)N[C@@H](CC(C)C)C(=O)N[C@@H](CCC(N)=O)C(=O)N[C@@H](CCC(=O)O)C(=O)N[C@@H](CS)C(=O)N[C@@H](C)C(=O)N[C@@H](CCCNC(=N)N)C(=O)N[C@@H](CCCNC(=N)N)C(=O)N[C@@H](CS)C(=O)N[C@@H](CC(N)=O)C(=O)O)[C@@H](C)CC)[C@@H](C)O [Example 56] (H-LGIEGRTGGGLLDICELKLQECARRCN-OH; N-terminus and C-terminus assumed) — lower, < 0.5 µM
- CC[C@H](C)[C@H](NC(=O)[C@H](CC(=O)O)NC(=O)[C@H](CC(C)C)NC(=O)[C@H](CC(C)C)NC(=O)CNC(=O)CNC(=O)CN)C(=O)N[C@@H](CS)C(=O)N[C@@H](CCC(=O)O)C(=O)N[C@@H](CC(C)C)C(=O)N[C@@H](CCCCN)C(=O)N[C@@H](CC(C)C)C(=O)N[C@@H](CCC(N)=O)C(=O)N[C@@H](CCC(=O)O)C(=O)N[C@@H](CS)C(=O)N[C@@H](C)C(=O)N[C@@H](CCCNC(=N)N)C(=O)N[C@@H](CCCNC(=N)N)C(=O)N[C@@H](CS)C(=O)N[C@@H](CC(N)=O)C(=O)O [Example 54] (H-GGGLLDICELKLQECARRCN-OH; N-terminus and C-terminus assumed) — lower, < 0.5 µM
- CC[C@H](C)[C@H](NC(=O)[C@H](CC(=O)O)NC(=O)[C@H](CC(C)C)NC(=O)[C@@H](N)CC(C)C)C(=O)N[C@@H](CS)C(=O)N[C@@H](CCC(=O)O)C(=O)N[C@@H](CC(C)C)C(=O)N[C@@H](CCCCN)C(=O)N[C@@H](CC(C)C)C(=O)N[C@@H](CCC(N)=O)C(=O)N[C@@H](CCC(=O)O)C(=O)N[C@@H](CS)C(=O)N[C@@H](C)C(=O)N[C@@H](CCCNC(=N)N)C(=O)N[C@@H](CCCNC(=N)N)C(=O)N[C@@H](CS)C(=O)N[C@@H](CC(N)=O)C(=O)O [Example 53, LLDICELKLQECARRCN] (H-LLDICELKLQECARRCN-OH; N-terminus and C-terminus assumed) — lower, < 0.5 µM
- CC[C@H](C)[C@H](NC(=O)[C@H](CC(=O)O)NC(=O)[C@H](CC(C)C)NC(=O)[C@H](CC(C)C)NC(=O)[C@H](CCCCN)NC(=O)CCCC[C@@H]1SC[C@@H]2NC(=O)N[C@@H]21)C(=O)N[C@@H](CS)C(=O)N[C@@H](CCC(=O)O)C(=O)N[C@@H](CC(C)C)C(=O)N[C@@H](CCCCN)C(=O)N[C@@H](CC(C)C)C(=O)N[C@@H](CCC(N)=O)C(=O)N[C@@H](CCC(=O)O)C(=O)N[C@@H](C)C(=O)N[C@@H](C)C(=O)N[C@@H](CCCNC(=N)N)C(=O)N[C@@H](CCCNC(=N)N)C(=O)N[C@@H](CS)C(=O)N[C@@H](CC(N)=O)C(=O)O [Example 60, Biotin-KLLDICELKLQEAARRCN] (Biotin-KLLDICELKLQEAARRCN-OH; C-terminus assumed) — not separable, 0.5 to 200 µM
- CC[C@H](C)[C@@H]1NC(=O)[C@H](CCC(N)=O)NC(=O)[C@H](C(C)C)NC(=O)[C@@H]2CCCN2C(=O)[C@H](CO)NC(=O)[C@H](C(C)C)NC(=O)[C@H](Cc2c[nH]cn2)NC(=O)[C@@H](NC(=O)CN)CSSC[C@@H](C(=O)O)NC(=O)[C@H](CC(C)C)NC(=O)[C@H](C)NC(=O)[C@H](CCCCN)NC1=O [Example 72, GCHVSPVQIKALC] (H-GCHVSPVQIKALC-OH; disulfide 2-13; N-terminus and C-terminus assumed) — higher, > 200 µM
- CC(C)C[C@H](NC(=O)[C@H](CCCNC(=N)N)NC(=O)[C@H](CC(C)C)NC(=O)[C@H](CCC(N)=O)NC(=O)[C@H](CS)NC(=O)[C@H](CC(C)C)NC(=O)[C@H](CCC(=O)O)NC(=O)[C@H](CC(C)C)NC(=O)[C@@H](N)Cc1ccc(O)cc1)C(=O)N[C@@H](CCC(=O)O)C(=O)N[C@@H](CCC(=O)O)C(=O)N[C@@H](CS)C(=O)N[C@@H](C)C(=O)N[C@@H](CCCNC(=N)N)C(=O)N[C@@H](CCC(N)=O)C(=O)N[C@@H](Cc1ccccc1)C(=O)N[C@@H](CC(N)=O)C(=O)O [Example 70, YLELCQLRLEECARQFN] (H-YLELCQLRLEECARQFN-OH; N-terminus and C-terminus assumed) — not separable, 0.5 to 200 µM
- CC[C@H](C)[C@H](NC(=O)[C@H](CC(=O)O)NC(=O)[C@H](CC(C)C)NC(=O)[C@H](CC(C)C)NC(=O)[C@H](CCCCN)NC(=O)CCCC[C@@H]1SC[C@@H]2NC(=O)N[C@@H]21)C(=O)N[C@@H](C)C(=O)N[C@@H](CCC(=O)O)C(=O)N[C@@H](CC(C)C)C(=O)N[C@@H](CCCCN)C(=O)N[C@@H](CC(C)C)C(=O)N[C@@H](CCC(N)=O)C(=O)N[C@@H](CCC(=O)O)C(=O)N[C@@H](CS)C(=O)N[C@@H](C)C(=O)N[C@@H](CCCNC(=N)N)C(=O)N[C@@H](CCCNC(=N)N)C(=O)N[C@@H](CS)C(=O)N[C@@H](CC(N)=O)C(=O)O [Example 62, Biotin-KLLDIAELKLQECARRCN] (Biotin-KLLDIAELKLQECARRCN-OH; C-terminus assumed) — not separable, 0.5 to 200 µM
- CC[C@H](C)[C@H](NC(=O)[C@H](CC(=O)O)NC(=O)[C@H](CC(C)C)NC(=O)[C@@H](N)CC(C)C)C(=O)N[C@@H](CS)C(=O)N[C@@H](CCC(=O)O)C(=O)N[C@@H](CC(C)C)C(=O)N[C@@H](CCCCN)C(=O)N[C@@H](CC(C)C)C(=O)N[C@@H](CCC(N)=O)C(=O)N[C@@H](CCC(=O)O)C(=O)N[C@@H](CS)C(=O)N[C@@H](C)C(=O)N[C@@H](CCCNC(=N)N)C(=O)N[C@@H](CCCNC(=N)N)C(=O)N[C@@H](C)C(=O)N[C@@H](CC(N)=O)C(=O)O [Example 57, LLDICELKLQECARRAN] (H-LLDICELKLQECARRAN-OH; N-terminus and C-terminus assumed) — not separable, 0.5 to 200 µM
